# Results: the supplement of paper PMC8728848
# The list shows a part of the results.
# B1: AAL (Agrocybe aegerita), Q6WY08 (protein)
# chain: MQGVNIYNISAGTSVDLAAPVTTGDIVTFFSSALNLNAGAGNPNNTTLNLFAENGAYLLHIAFRLQENVIIFNSRQPDGPWLVEQRVSDVANQFAGIDGKAMVTVFDHGDKYQVVINEKTVIQYTKQISGLTLSLSYNATEETSIFSTVVEAVTYTGLALEHHHHHH
# Legend:
# Assay in all cases: glycan array binding signal (z-score within array); higher = stronger binding
# Details in all cases: glycan notation: IUPAC condensed, linker removed
# Fuc(a1-2)Gal = target: Fuc(a1-2)Gal
# Summary of the method: (§1)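 The binding signal is a Z-score computed within each array and averaged over linkers. Arrays of the same protein sequence at different concentrations or buffers were also averaged together. Data originate from 3228 arrays in the Consortium for Functional Glycomics database, kept only where the protein sequence was available.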
# Fuc(a1-2)Gal(b1-3)GalNAc = target: Fuc(a1-2)Gal(b1-3)GalNAc
# Summary of the method: as §1
# [1] = target: Fuc(a1-2)Gal(b1-3)GalNAc(a1-3)[Fuc(a1-2)]Gal(b1-4)Glc
# Summary of the method: as §1
# [2] = target: Fuc(a1-2)Gal(b1-3)GalNAc(a1-3)[Fuc(a1-2)]Gal(b1-4)GlcNAc
# Summary of the method: as §1
# [3] = target: Fuc(a1-2)Gal(b1-3)GalNAc(b1-3)Gal
# Summary of the method: as §1
# [4] = target: Fuc(a1-2)Gal(b1-3)GalNAc(b1-3)Gal(a1-4)Gal(b1-4)Glc
# Summary of the method: as §1
# [5] = target: Fuc(a1-2)Gal(b1-3)GalNAc(b1-4)[Neu5Ac(a2-3)]Gal(b1-4)Glc
# Summary of the method: as §1
# Fuc(a1-2)Gal(b1-3)GlcNAc = target: Fuc(a1-2)Gal(b1-3)GlcNAc
# Summary of the method: as §1
# [6] = target: Fuc(a1-2)Gal(b1-3)GlcNAc(b1-2)Man(a1-3)[Fuc(a1-2)Gal(b1-3)GlcNAc(b1-2)Man(a1-6)]Man(b1-4)GlcNAc(b1-4)GlcNAc
# Summary of the method: as §1
# [7] = target: Fuc(a1-2)Gal(b1-3)GlcNAc(b1-2)Man(a1-3)[Fuc(a1-2)Gal(b1-3)GlcNAc(b1-2)Man(a1-6)]Man(b1-4)GlcNAc(b1-4)[Fuc(a1-6)]GlcNAc
# Summary of the method: as §1
# [8] = target: Fuc(a1-2)Gal(b1-3)GlcNAc(b1-3)Gal(b1-4)Glc
# Summary of the method: as §1
# [9] = target: Fuc(a1-2)Gal(b1-3)GlcNAc(b1-3)GalNAc
# Summary of the method: as §1
# [10] = target: Fuc(a1-2)Gal(b1-3)GlcNAc(b1-3)[Fuc(a1-2)Gal(b1-3)GlcNAc(b1-6)]GalNAc
# Summary of the method: as §1
# [11] = target: Fuc(a1-2)Gal(b1-3)GlcNAc(b1-3)[Fuc(a1-3)[Gal(b1-4)]GlcNAc(b1-6)]Gal(b1-4)Glc
# Summary of the method: as §1
# [12] = target: Fuc(a1-2)Gal(b1-3)GlcNAc(b1-3)[Gal(b1-4)GlcNAc(b1-6)]Gal(b1-4)Glc
# Summary of the method: as §1
# [13] = target: Fuc(a1-2)Gal(b1-3)GlcNAc(b1-3)[Neu5Ac(a2-6)Gal(b1-4)GlcNAc(b1-6)]Gal(b1-4)Glc
# Summary of the method: as §1
# [14] = target: Fuc(a1-2)Gal(b1-3)GlcNAc6S
# Summary of the method: as §1
# [15] = target: Fuc(a1-2)Gal(b1-3)[Fuc(a1-4)]GlcNAc
# Summary of the method: as §1
# [16] = target: Fuc(a1-2)Gal(b1-3)[Fuc(a1-4)]GlcNAc(b1-2)Man(a1-3)[Fuc(a1-2)Gal(b1-3)[Fuc(a1-4)]GlcNAc(b1-2)Man(a1-3)]Man(b1-4)GlcNAc(b1-4)GlcNAc
# Summary of the method: as §1
# [17] = target: Fuc(a1-2)Gal(b1-3)[Fuc(a1-4)]GlcNAc(b1-2)Man(a1-3)[Fuc(a1-2)Gal(b1-3)[Fuc(a1-4)]GlcNAc(b1-2)Man(a1-6)]Man(b1-4)GlcNAc(b1-4)GlcNAc
# Summary of the method: as §1
# [18] = target: Fuc(a1-2)Gal(b1-3)[Fuc(a1-4)]GlcNAc(b1-2)Man(a1-3)[Fuc(a1-2)Gal(b1-3)[Fuc(a1-4)]GlcNAc(b1-2)Man(a1-6)]Man(b1-4)GlcNAc(b1-4)[Fuc(a1-6)]GlcNAc(b1-4)[Fuc(a1-6)]GlcNAc
# Summary of the method: as §1
# [19] = target: Fuc(a1-2)Gal(b1-3)[Fuc(a1-4)]GlcNAc(b1-3)[Fuc(a1-3)[Gal(b1-4)]GlcNAc(b1-6)]Gal(b1-4)Glc
# Summary of the method: as §1
# [20] = target: Fuc(a1-2)Gal(b1-3)[Fuc(a1-4)]GlcNAc(b1-3)[Gal(b1-4)GlcNAc(b1-6)]Gal(b1-4)Glc
# Summary of the method: as §1
# [21] = target: Fuc(a1-2)Gal(b1-4)Fuc(a1-3)]GlcNAc(b1-2)Man(a1-3)[Fuc(a1-2)Gal(b1-4)[Fuc(a1-3)]GlcNAc(b1-2)Man(a1-6)]Man(b1-4)GlcNAc(b1-4)GlcNAc
# Summary of the method: as §1
# Fuc(a1-2)Gal(b1-4)Glc = target: Fuc(a1-2)Gal(b1-4)Glc
# Summary of the method: as §1
# Fuc(a1-2)Gal(b1-4)Glc6S = target: Fuc(a1-2)Gal(b1-4)Glc6S
# Summary of the method: as §1
# Fuc(a1-2)Gal(b1-4)GlcNAc = target: Fuc(a1-2)Gal(b1-4)GlcNAc
# Summary of the method: as §1
# [22] = target: Fuc(a1-2)Gal(b1-4)GlcNAc(b1-2)Man
# Summary of the method: as §1
# [23] = target: Fuc(a1-2)Gal(b1-4)GlcNAc(b1-2)Man(a1-3)[Fuc(a1-2)Gal(b1-4)GlcNAc(b1-2)Man(a1-6)]Man(b1-4)GlcNAc(b1-4)GlcNAc
# Summary of the method: as §1
# [24] = target: Fuc(a1-2)Gal(b1-4)GlcNAc(b1-2)Man(a1-3)[Fuc(a1-2)Gal(b1-4)GlcNAc(b1-2)Man(a1-6)]Man(b1-4)GlcNAc(b1-4)[Fuc(a1-6)]GlcNAc
# Summary of the method: as §1
binder,measurement,setting,value
B1,glycan array binding signal (z-score),Fuc(a1-2)Gal,-0.134
same,glycan array binding signal (z-score),Fuc(a1-2)Gal(b1-3)GalNAc,-0.157
same,glycan array binding signal (z-score),[1],-0.137
same,glycan array binding signal (z-score),[2],-0.153
same,glycan array binding signal (z-score),[3],-0.159
same,glycan array binding signal (z-score),[4],-0.154
same,glycan array binding signal (z-score),[5],-0.133
same,glycan array binding signal (z-score),Fuc(a1-2)Gal(b1-3)GlcNAc,-0.141
same,glycan array binding signal (z-score),[6],-0.105
same,glycan array binding signal (z-score),[7],-0.108
same,glycan array binding signal (z-score),[8],-0.146
same,glycan array binding signal (z-score),[9],-0.152
same,glycan array binding signal (z-score),[10],-0.137
same,glycan array binding signal (z-score),[11],-0.159
same,glycan array binding signal (z-score),[12],-0.134
same,glycan array binding signal (z-score),[13],-0.109
same,glycan array binding signal (z-score),[14],-0.13
same,glycan array binding signal (z-score),[15],-0.145
same,glycan array binding signal (z-score),[16],-0.104
same,glycan array binding signal (z-score),[17],-0.156
same,glycan array binding signal (z-score),[18],-0.113
same,glycan array binding signal (z-score),[19],-0.156
same,glycan array binding signal (z-score),[20],-0.131
same,glycan array binding signal (z-score),[21],-0.11
same,glycan array binding signal (z-score),Fuc(a1-2)Gal(b1-4)Glc,-0.153
same,glycan array binding signal (z-score),Fuc(a1-2)Gal(b1-4)Glc6S,-0.156
same,glycan array binding signal (z-score),Fuc(a1-2)Gal(b1-4)GlcNAc,-0.146
same,glycan array binding signal (z-score),[22],-0.116
same,glycan array binding signal (z-score),[23],-0.113
same,glycan array binding signal (z-score),[24],-0.075
